Source: PubChem BioAssay AID1030 (National Center for Advancing Translational Sciences (NCATS), 2008)
The whole screen tested about 220,000 compounds, of which about 16,000 (7.3%) were called active. The inconclusive results got no clear call from the source; some entries with a clear call stand among them for comparison. Calls come from the whole dose curve; as a rule, active = well fitted inhibition curve with a large enough effect (not every such curve was filed as active); inconclusive = small, poorly fitted or top-dose-only effect, or another doubt; inactive = no such curve, though single readings can be large or run the other way. Where the call is inconclusive, the potency comes from a doubtful curve fit.

What follows are molecules tested against Aldehyde dehydrogenase 1A1 (Homo sapiens) (UniProt P00352) (assay: qHTS Assay for Inhibitors of Aldehyde Dehydrogenase 1 (ALDH1A1)). Settings: Purified ALDH1A1, NADH fluorescence, propionaldehyde substrate; series mostly up to 75.3 µM; activity, negative = inhibition: at the top concentration.
Potency is the fitted concentration of half-maximal effect; tags give direction and shape of the fitted curve.
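Throughout, for activity, negative = inhibition: plate controls were no enzyme wells and a reference inhibitor.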

Sequence of UniProt P00352 (P00352 whole entry, looked up): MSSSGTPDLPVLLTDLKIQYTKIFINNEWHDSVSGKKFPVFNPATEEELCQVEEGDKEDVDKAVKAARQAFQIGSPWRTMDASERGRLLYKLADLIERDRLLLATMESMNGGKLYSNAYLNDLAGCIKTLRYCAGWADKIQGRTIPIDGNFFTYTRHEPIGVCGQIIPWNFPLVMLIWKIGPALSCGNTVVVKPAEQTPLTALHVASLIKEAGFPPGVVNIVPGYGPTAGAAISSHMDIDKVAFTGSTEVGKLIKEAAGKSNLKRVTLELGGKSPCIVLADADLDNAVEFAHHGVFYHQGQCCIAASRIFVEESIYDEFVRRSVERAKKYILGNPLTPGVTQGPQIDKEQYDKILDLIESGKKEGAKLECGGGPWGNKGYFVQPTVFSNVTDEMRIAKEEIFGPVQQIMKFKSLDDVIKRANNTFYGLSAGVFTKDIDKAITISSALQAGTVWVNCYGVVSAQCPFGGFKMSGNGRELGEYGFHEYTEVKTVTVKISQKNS

activity, negative = inhibition, inactive:
CC(C)NC(=S)Nc1ccc2nc3n(c(=O)c2c1)CCCCC3 3.85%
CCC1=C2CC[C@H]3C(=O)NC(=O)[C@H]3[C@H]2[C@@]2(C)C(=NCCOC)OC(=O)N2C1=O -3.99%
CC(C)NC(=O)N1CCC2(CC1)CCN(C(=O)c1ccncc1)CC2 -5.41%
Cc1cc(C=O)c(C)n1-c1cc(C(=O)O)cc(C(=O)O)c1 -10.8%
CCN(C(=O)Cc1nc(N)n[nH]1)C1(C(=O)Nc2ccccc2)CCCCC1 -0.0224%
CC(C)(C)n1nnnc1C(c1cccs1)N1CCCC2(CCCCC2)C1 (configuration not stated) 5.45%
O=C(Cc1c(F)cccc1Cl)NCC1CCCO1 (configuration not stated) 2.51%
COc1cccc(CNC(=O)CCC2CCCN(Cc3ccc(OC(F)F)cc3)C2)c1 (configuration not stated) 8.18%
CN1CCN(C(=O)c2cc3nc(-c4ccccc4)cc(C(F)(F)F)n3n2)CC1 -5.37%
CCn1nnc2cc(C(=O)O)ccc21 2.09%
Cc1cc(C(=O)CSc2ncn[nH]2)c(C)n1-c1cccc(S(=O)(=O)N2CCOCC2)c1 8.1%
CC1(C)Cc2c(sc3c2c(=O)n(Cc2ccccc2)c2nncn32)CO1 4.35%
CCc1ccc2c(O)c3c(cc2c1C(=O)OC)C(=O)c1c(O)ccc(O)c1C3=O 5.17%
COc1ccccc1NC(=O)c1cccc(S(=O)(=O)N2CCOCC2)c1 4.57%
O=C(Cc1ccccc1)Nc1nc2ccc(Cl)cc2c2nc(-c3ccco3)nn12 -18.6%
CCc1sc(C(=O)NCCc2ccc(S(N)(=O)=O)cc2)cc1Br 2.44%
C=CCOC(=O)N[C@H](/C(C(=O)OC)=C(\C)NCc1ccccc1)c1ccc2c(c1)OCO2 1.21%
CCOC(=O)c1ccccc1C(=O)N1CCOCCOCCOCC1 9.52%

Potency, inconclusive:
COCCn1c(=O)[nH]c2cc(C(=O)NCc3ccccc3)ccc2c1=O 35.5 µM [inhibitor, partial curve]
O=C(CS(=O)(=O)c1ccccc1)Nc1nc2ccccc2s1 39.8 µM [inhibitor, single point]
COc1ccccc1N/C(=N/S(=O)(=O)c1ccc(C)cc1)c1ccc(Cl)cc1 39.8 µM [inhibitor, single point]
CC1(C)CC(N=C=O)CC(C)(CN=C=O)C1 (configuration not stated) 39.8 µM [inhibitor, single point]
COc1ccc(CCNC(=O)C2CCC(CNS(=O)(=O)c3ccc(F)cc3)CC2)cc1OC (configuration not stated) 1.58 µM [inhibitor, full curve]
CCOc1cc(C(=S)N2CCOCC2)ccc1OC 39.8 µM [inhibitor, single point]
CN(CCNC(=O)C1CCN(S(=O)(=O)N2CCOCC2)CC1)CCc1ccccc1 39.8 µM [inhibitor, single point]
Cc1cc(C(=O)OCC(=O)N2c3ccccc3NC(=O)C2(C)C)c(C)n1-c1ccccc1 39.8 µM [inhibitor, single point]
CC1CCCCC1NC(=O)Cn1[nH]c(=O)c2ccccc2c1=O (configuration not stated) 25.1 µM [inhibitor, single point]
CC(C)c1ccc(NC(=S)N(C)CCc2ccccn2)cc1 20 µM [inhibitor, partial curve, poor fit]
c1ccc(-c2nnc(-c3ccco3)n2-c2ccccc2)cc1 35.5 µM [inhibitor, single point]
CCCc1[nH]nc2c1C(c1ccccc1OC)C(C#N)=C(N)O2 (configuration not stated) 39.8 µM [inhibitor, single point]
COc1cccc(/C=N/Nc2snc(SC)c2C#N)c1 39.8 µM [inhibitor, single point]
CCOc1cc(CNc2ccc(N3CCCCC3)cc2)cc(Br)c1OCC(=O)NC(C)(C)C 25.1 µM [inhibitor, single point]
N#Cc1cc2cc3c(cc2nc1NCCNC(=S)NCCCN1CCOCC1)OCO3 14.1 µM [inhibitor, partial curve]
Cc1cc(C)c2cc(C=O)c(Cl)nc2c1 7.08 µM [inhibitor, full curve]
COC(=O)c1c(-c2c(Cl)cccc2Cl)noc1C(=O)NN 39.8 µM [inhibitor, single point]
O=C(NCCc1nc2ccccc2[nH]1)/C(=C/c1ccco1)NC(=O)c1ccco1 39.8 µM [inhibitor, single point]
COc1ccc(OC)c(C(c2nnnn2C2CCCC2)N2CCN(c3ccccc3)CC2)c1 (configuration not stated) 39.8 µM [inhibitor, single point]
CS(=O)(=O)Nc1ccc(-c2n[nH]c(=S)n2-c2ccccc2)cc1 35.5 µM [inhibitor, single point]
CCCSC1=C(C#N)C(c2cccs2)C(C(=O)Nc2ccccc2)=C(C)N1 (configuration not stated) 35.5 µM [inhibitor, partial curve]
COc1ccc(CNCCNC(=O)c2ccco2)c(OC)c1OC 39.8 µM [inhibitor, single point]
CC1=NN(/C(=N\c2nnc(C)s2)Nc2ccc(C)cc2)[C@H](c2ccc(C)cc2)S1 22.4 µM [inhibitor, partial curve]
C/C(=N\NC(=O)c1c(Br)c(C)nn1C)c1cccc(NC(=O)c2ccccc2C)c1 31.6 µM [inhibitor, single point]
CCCc1ccc(C#N)c(SC2CC(=O)N(c3ccc(OC)cc3)C2=O)n1 (configuration not stated) 31.6 µM [inhibitor, single point]
Cc1nc(NC(=O)/C=C/c2ccccc2)sc1C(=O)Nc1ccc(Cl)cc1 31.6 µM [inhibitor, single point]
CCOC(=O)Nc1c(C(=O)OC)[nH]c2cc(OC)ccc12 31.6 µM [inhibitor, single point]
C[C@H](NS(=O)(=O)c1ccc(Cl)cc1)C(=O)OCC(=O)NC(=O)Nc1ccc2c(c1)OCCO2 3.55 µM [inhibitor, single point]
COc1ccc(S(=O)(=O)Nc2ccccc2C(N)=O)cc1OC 35.5 µM [inhibitor, single point]
CCC(C)NC(=O)C1c2ccccc2C(=O)N(c2ccc(OC)cc2)C1c1ccc(OC)cc1 (configuration not stated) 39.8 µM [inhibitor, single point]
Cn1ccnc1SCC(=O)Nc1ccc2ccccc2c1 39.8 µM [inhibitor, single point]
COC(=O)c1ccc(-c2ccco2)n1Cc1ccccc1Cl 39.8 µM [inhibitor, single point]
CC(=O)N(Cc1ccc2c(c1)OCO2)C1CC(=O)N(CCc2ccccc2)C1=O (configuration not stated) 31.6 µM [inhibitor, single point]
CC(C)CCNC(=O)c1cnn2c(C(F)(F)F)cc(-c3ccco3)nc12 25.1 µM [inhibitor, partial curve]
CCOC(=O)c1nn(-c2ccc(F)cc2)c2c1CC/C2=C/c1ccccc1 31.6 µM [inhibitor, single point]
CSC1=NC(C)(C)C=C(/C=C/c2c(Cl)cccc2Cl)N1 39.8 µM [inhibitor, single point]
Cc1ccc2nc(-c3ccc(NC(=O)COC(=O)c4ccc(Br)o4)cc3)sc2c1 35.5 µM [inhibitor, single point]
COc1ccc(-c2[nH]ncc2/C=N/NC(=O)c2ccc(Br)cc2)c(OC)c1 39.8 µM [inhibitor, single point]
CCC(C)n1c(-c2ccco2)nc2nc3ccccc3nc21 (configuration not stated) 28.2 µM [inhibitor, partial curve]
CCOCCCNC(=O)c1c(N)n(-c2ccc(S(N)(=O)=O)cc2)c2nc3ccccc3nc12 3.16 µM [inhibitor, partial curve]
COc1ccc(S(=O)(=O)N2CCN(CC(=O)Nc3ccc(F)c(F)c3)CC2)cc1 39.8 µM [inhibitor, single point]
S=C1SCN(Cc2cccnc2)CN1Cc1ccccc1 39.8 µM [inhibitor, single point]

Potency, active:
Cc1cccc(NC(=O)CSc2nnc([C@@H]3CCCN3C(=O)OC(C)(C)C)o2)c1C 3.55 µM
CCc1cccc2c(C(=O)COC(=O)c3ccc([N+](=O)[O-])s3)c[nH]c12 12.6 µM
Cn1c(=O)c2c(nc(N3CCCCCC3)n2CC(O)COc2ccc(Cl)cc2)n(C)c1=O (configuration not stated) 11.2 µM
CCCCN(Cc1ccccc1)S(=O)(=O)c1ccc2[nH]c(=O)oc2c1 5.01 µM
CCOC(=O)c1sc(NC(=O)CSc2nc3c(c(=O)n2-c2ccc(C)cc2)SCC3)c(C(=O)OCC)c1C 9.46 µM
Cc1ccc(-n2nc(C)c3c2OC(N)=C(C#N)C3c2ccco2)cc1 (configuration not stated) 1.58 µM
CCC1(C)Cc2c(C#N)c(N)sc(=S)c2CO1 (configuration not stated) 10 µM
NS(=O)(=O)c1ccc(NC(=S)NCC2CCCO2)cc1 (configuration not stated) 28.2 µM
Cc1ccc(CN2C(=O)CCC2C(=O)NCCN(CC(C)C)CC(C)C)cc1 (configuration not stated) 22.4 µM
CCOC(=O)c1c(/N=C/c2cc(OC)cc([N+](=O)[O-])c2O)sc(C)c1C 31.6 µM
N#CC1=C(SCc2ccccc2)NC(=O)CC1c1ccco1 (configuration not stated) 22.4 µM
Cc1ccc(C)c2c3c([nH]c12)-c1nonc1CC3 22.4 µM
